This is an account of results in PubChem BioAssay AID1508623 (National Center for Advancing Translational Sciences (NCATS), 2021).

Screen size: about 48,000 compounds; about 450 (0.94%) were called active. Another 19% or so got no clear call; they are omitted. Calls follow the shape of the dose curve; as a rule, active = well fitted inhibition curve with a large enough effect; inconclusive = small, poorly fitted or top-dose-only effect; inactive = no such curve, though single readings can be large or run the other way. The list shows a part of the results.

The assay is described as follows: Primary qHTS for Identification of Small Molecule Inhibitors of Huntingtin Promoter Activity. Also: nearly all actives have a fitted effect of over 50% in size. The conditions noted are these: HEK293 HTT promoter firefly luciferase reporter (activity 0% = vehicle and -100% = no light), 24 h; series mostly up to 57.5 µM; activity change, negative = inhibition: at the top concentration. In outline: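 Luminescence was read after Dual-Glo reagent and a 10 min room-temperature incubation. Values were normalized to vehicle (0% activity) and zero RLU (-100% activity). Reporter HEK293 cells had been exposed to compounds (up to 57.5 uM final) for 24 h.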
As for `CCc1ccc(NC(=O)CC2C(=O)NCCN2C(=O)c2ccccc2OC)cc1` (centres undefined), the “activity change, negative = inhibition” value was inactive: -11.6%.
Then `Cc1nc(SCc2cc(=O)c3cccc(F)c3[nH]2)n[nH]1`, with inactive: 10%; and `CC(C)c1ccc(NC(=O)CSc2ncnc3c2sc2ccccc23)cc1`, with inactive: 3.11%.
Then `Clc1cccc(CSc2nc(NCCc3ccccc3)c3ccccc3n2)c1`, with inactive: -2.37%.
Then `COc1ccccc1CNCc1ccc(C(=O)O)s1`, with inactive: -2.7%.
Take `COc1ccc(NC(=O)Cn2ncc3c(C)n(Cc4cccc(Cl)c4)c(C)c3c2=O)cc1`: the “activity change, negative = inhibition” value was inactive: -2.33%.
Then `COc1c(C)cccc1C(=O)Nc1ccc(Cl)c(-c2nc3cc(C)ccc3o2)c1`, with inactive: -25.5%; and `COc1ccc(-c2nc3sc(CCNC(=O)Cc4ccc(Cl)cc4)c(C)n3n2)cc1`, with inactive: -18.5%.
As for `CC(C)CCOc1ccc(Cn2c(=O)sc3ccccc32)cc1`, the “activity change, negative = inhibition” value is inactive: -14.5%.
Then `CCOc1ccc(CCNC(=O)CSc2nc3ccccc3nc2Cc2ccc(C)cc2)cc1OCC`, with inactive: -9.07%; and `CC(=O)OC[C@H]1O[C@@H](n2ncc(=O)[nH]c2=O)[C@H](OC(C)=O)[C@@H]1OC(C)=O`, with inactive: -22.9%; and `CCN(CC)c1ccc(C(=O)NCc2ccc3c(c2)CCN3C(=O)c2cccc(C)c2)cc1`, with inactive: -2.45%.
Then `CCN(CC)c1ccc(NC(=O)CN(C)S(=O)(=O)c2cccc3nsnc23)c(C)c1`, with inactive: -24.2%; and `CCOc1ccccc1NC(=O)Nc1ccc2nc(N3CCN(C)CC3)cc(C)c2c1`, with inactive: 46.7%; and `Cc1ccccc1CN1C(=O)c2ccccc2Sc2ccc(C(=O)O)cc21`, with inactive: -7.08%.
Then `O=C(O)COCCN1CCN(C(c2ccccc2)c2ccc(Cl)cc2)CC1` (centres undefined), with “inactive”; and `Cc1ccc(CS(=O)Cc2ccc(C(=O)NCc3ccccc3Cl)o2)cc1` (centres undefined), with inactive: -13.1%.
With `Cc1ccc(NC(=O)C2CCCN(c3cnccn3)C2)cc1Cl` (centres undefined), the “activity change, negative = inhibition” value was inactive: -2.71%.
Then `Nc1nnc(SCC(=O)Nc2cccc(F)c2)s1`, with inactive: 5.8%.
Then `COc1ccccc1C(=O)Nc1cccc(OCc2cc(=O)n3c(C)csc3n2)c1`, with inactive: -20.8%.
Then `O=S(=O)(c1cc(Br)c(Br)s1)N1CCN(c2ccccc2)CC1`, with inactive: -3.05%; and `COc1cccc(NC(=O)CCSc2nc(-c3ccco3)cc(C(F)(F)F)n2)c1`, with inactive: -16.3%; and `CCOc1ccc(CCNC(=O)c2cc3cc4cc(OC)ccc4nc3s2)cc1OCC`, with inactive: -14.8%.
As for `COc1ccc(-c2noc(N3CCN(c4ccc(Cl)cc4)CC3)n2)cc1OC`, the activity change, negative = inhibition was inactive: -4.05% [at 11.5 µM].
Then `CCc1nn2c(=O)cc(COC(=O)c3cccc(NC(=O)COc4ccccc4)c3)nc2s1`, with inactive: 20%; and `CCOc1ccccc1NC(=O)C(=O)c1cc(C)n(-c2cccc(C)c2C)c1C`, with inactive: -25.6%.
Then `CC(C)Cc1nn2c(=O)cc(COC(=O)c3ccccc3NC(=O)c3cccs3)nc2s1`, with inactive: -26.8%.
Then `CCc1cccc(C)c1NC(=O)C1CCN(c2nnc(C)c3c(C)n(-c4ccccc4)nc23)CC1`, with inactive: -19.2%; and `Cc1cc(C)cc(NC(=O)Cn2cc(C(=O)c3ccncc3)c(=O)c3cc(C)c(C)cc32)c1`, with inactive: -10.8%; and `COc1ccc(CNC(=O)C2CCN(S(=O)(=O)c3ccc4nc5c(c(C(=O)O)c4c3)CCCC5)CC2)cc1`, with inactive: -9.58%.
On to `CCCCCn1c(=O)[nH]c2cc(C(=O)N3CCN(c4cccc(Cl)c4)CC3)ccc2c1=O`, for which the “activity change, negative = inhibition” value was inactive: -13.1%.
Then `Cc1ccccc1NC(=O)c1cc2sccc2n1Cc1ccc(F)cc1`, with inactive: -18.7%; and `COc1ccc(OC)c(CNC(=O)c2cc(S(=O)(=O)N3CCC(C)CC3)cn2C)c1`, with inactive: -29.9%; and `COc1ccc(NC(=O)CCc2nc3c(C)nn(-c4ccc(C)cc4)c3n(C)c2=O)c(OC)c1`, with inactive: -4.23%.
Then `CCOC(=O)CCn1c(=O)c2cccn2c2cccnc21`, with inactive: -5.3%; and `CCOc1ccc(-c2c(C)nn3c(C)c(C(=O)Nc4cccc(Cl)c4C)cnc23)cc1OCC`, with inactive: -8.3%.
Then `COCCN1Cc2cccc(C(=O)Nc3ccc(C(=O)OC)cc3)c2C1=O`, with inactive: -0.747%; and `Cc1ccc(NC(=O)c2cc(S(=O)(=O)N3CCC(C)CC3)cn2C)cc1Cl`, with inactive: -11.4%.
On to `N[C@@H]1CONC1=O`, for which the activity change, negative = inhibition entry is “inactive”.
Then `COc1ccccc1C(=O)Nc1ccc2nc(SCC(=O)N3CCCC3)sc2c1`, with inactive: 8.63%; and `Cc1ccc2nc(-c3ccsc3)c(Nc3ccc(C(C)C)cc3)n2c1`, with inactive: 0.963%; and `COCCNC(=O)CCCn1c(SCC(=O)c2ccc(F)cc2)nc2c(sc3ccccc32)c1=O`, with inactive: -5.3%.
Then `Cc1ccc(NC(=O)/C(C#N)=C\c2ccc(-c3ccc(Cl)cc3)o2)c(C)c1`, with inactive: -0.0379%.
Then `CCN(CC)S(=O)(=O)c1ccc2c(c1)nc(CN(C)C(=O)Nc1ccc(C)c(F)c1)n2C`, with inactive: 2.66%; and `CCc1ccccc1NC(=O)CN1C(=O)CCSc2ccc(S(=O)(=O)N3CCCC3)cc21`, with inactive: -30%; and `O=C(OCC1CCCO1)c1ccc2c(c1)N(Cc1ccccc1)C(=O)c1ccccc1S2(=O)=O` (centres undefined), with inactive: -1.58%.
Take `O=[N+]([O-])c1cncn1CCN1CCOCC1`: the “activity change, negative = inhibition” value was inactive: 6.6%.
Regarding `CCc1ccccc1NC(=O)C(C)n1c(=O)cc(C)c2c(C)nn(-c3ccccc3)c21` (centres undefined), the “activity change, negative = inhibition” value was inactive: -14.8%.
Then `CCOC(=O)C1CCCN(C(=O)Cn2ncc3c4ccccc4n(Cc4ccccc4)c3c2=O)C1` (centres undefined), with inactive: -4.28%.
